Experimental data as given in the BET-seq Pho4 binding data (Le et al. 2018).
This is one part of the list. Values were computed here from the reads of four pooled replicates and scatter widely.

The sequences below were run against T1, Pho4 (S. cerevisiae) (UniProt P07270) (assay: relative binding free energy (BET-seq); higher = weaker binding). Conditions: reference: library average.
T1 sequence: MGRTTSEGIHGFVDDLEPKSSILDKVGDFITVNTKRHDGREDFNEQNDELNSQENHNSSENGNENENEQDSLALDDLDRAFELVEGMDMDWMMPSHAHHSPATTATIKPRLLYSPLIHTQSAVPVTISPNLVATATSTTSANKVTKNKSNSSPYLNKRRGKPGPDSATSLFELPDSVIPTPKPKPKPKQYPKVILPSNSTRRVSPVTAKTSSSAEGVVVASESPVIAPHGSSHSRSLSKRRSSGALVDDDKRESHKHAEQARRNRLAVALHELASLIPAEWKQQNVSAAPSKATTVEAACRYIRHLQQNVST

| Sequence | relative binding free energy [kcal/mol] |
| --- | --- |
| TTTAACACGTGAACGG | 0.21 |
| CAATACACGTGTATGT | 0.14 |
| GTTGCCACGTGTGTTC | 0.03 |
| GTGTCCACGTGTCGGT | 0.04 |
| GGATTCACGTGGGGCG | 0.1 |
| TGCTGCACGTGTGGGA | 0.25 |
| TACTTCACGTGGTTGA | 0.22 |
| AAGTTCACGTGGATGT | 0.23 |
| TCAAGCACGTGGGTGG | -0.21 |
| GGAGTCACGTGATGAT | 0.32 |
| AAGTTCACGTGGTCAG | 0.25 |
| AGTGGCACGTGCTCGT | -0.28 |
| ATTGTCACGTGTGTCC | 0.18 |
| ATTTTCACGTGAAAGG | 0.36 |
| CTAGGCACGTGCGGTA | 0.01 |
| AGCGTCACGTGAAGTG | 0.3 |
| AGGTTCACGTGGAAGG | 0.29 |
| ATGGTCACGTGTAATG | 0.28 |
| AATTGCACGTGTGAGA | 0.09 |
| TTTTACACGTGTGATT | 0.21 |
| GCTTTCACGTGTTATT | 0.15 |
| GCTGGCACGTGGTGGT | -0.05 |
| GTTTGCACGTGGTTCT | 0.1 |
| TTTGACACGTGAAGTG | 0.21 |
| TTATACACGTGTGGTC | 0.02 |

| Sequence | relative binding free energy [kcal/mol] |
| --- | --- |
| TAGTGCACGTGATGGA | 0.08 |
| AAATTCACGTGAAAGT | 0.41 |
| AATTGCACGTGATGTG | 0.12 |
| TGGATCACGTGCGGTA | 0.12 |
| TTTGGCACGTGTTGGG | -0.04 |
| GTGTCCACGTGGGAAT | -0.01 |
| ATTGACACGTGATCTG | 0.1 |
| TAGCGCACGTGCGTGG | 0 |
| TTGGGCACGTGATGAT | -0.05 |
| GAGCACACGTGTTGGT | 0.14 |
| TGCCACACGTGGGTTT | -0.03 |
| AGGATCACGTGCGGTG | 0.19 |
| TGGTGCACGTGCAGGC | -0.27 |
| TTACTCACGTGATGGT | 0.22 |
| AAGAGCACGTGGAGTT | -0.06 |
| GGTTGCACGTGATTTT | 0.28 |
| GATTTCACGTGGTAGT | 0.26 |
| AGTGGCACGTGACGGC | -0.08 |
| GAGTGCACGTGGGGAA | -0.08 |
| AATAGCACGTGGTAGT | -0.17 |
| AGTTGCACGTGAGAGT | 0.12 |
| GTGGTCACGTGTGTCA | 0.14 |
| TGTAGCACGTGGCGTT | -0.19 |
| GAAGGCACGTGGTACG | -0.13 |
| TTGGCCACGTGGTAGG | -0.03 |

| Sequence | relative binding free energy [kcal/mol] |
| --- | --- |
| GCAGTCACGTGAGTGG | 0.19 |
| TGTGACACGTGGCGGT | -0.04 |
| GTAATCACGTGTTGGG | 0.15 |
| GATTGCACGTGAGGTG | 0.27 |
| GCGTGCACGTGGTAGT | 0 |
| TGGTTCACGTGGGGTA | 0.14 |
| CATGGCACGTGTTGGC | -0.06 |
| CATGTCACGTGACAGG | 0.35 |
| TAAGACACGTGGAAGG | 0.12 |
| GGAAGCACGTGTGTGT | -0.19 |
| TGGTGCACGTGTTTTA | 0.05 |
| CTTTACACGTGTCGTT | 0.13 |
| GCTTGCACGTGCGGGG | -0.09 |
| GATTTCACGTGTATAG | 0.25 |
| TGTCTCACGTGATAGT | 0.34 |
| GTGGTCACGTGCTGCG | -0.1 |
| TGAGGCACGTGTACGG | -0.12 |
| TACGGCACGTGTGCGT | -0.06 |
| TAGGTCACGTGACAGT | 0.16 |
| TTCTGCACGTGTTCTG | 0.02 |
| TTATCCACGTGTAAGG | 0.29 |
| TTTGTCACGTGATAAG | 0.29 |
| TCGGGCACGTGTGAGC | -0.1 |
| GTTTTCACGTGCTAGG | 0.24 |
| TAACTCACGTGAGGTT | 0.22 |

| Sequence | relative binding free energy [kcal/mol] |
| --- | --- |
| TTATGCACGTGGTTCA | -0.03 |
| GCTTGCACGTGTTGTT | 0.1 |
| TGATTCACGTGGTTAA | 0.29 |
| AGGAACACGTGTGGCG | 0.15 |
| GCTTACACGTGTTGGT | 0.26 |
| CGTGGCACGTGCTTGT | -0.13 |
| ATTTTCACGTGAGTGC | 0.36 |
| TCCGTCACGTGTGGTT | 0.19 |
| AGAAGCACGTGTGGCT | 0.04 |
| TGCGCCACGTGTTGTG | -0.11 |
| TTGAGCACGTGCTTGT | -0.2 |
| CGTGGCACGTGGGTAA | -0.17 |
| TGAACCACGTGTGTGT | -0.18 |
| TTCGGCACGTGATGGA | 0.01 |
| CTTGGCACGTGTGAGA | -0.01 |
| TAGTTCACGTGGCAAT | 0.32 |
| TTGTCCACGTGAGGTG | 0.24 |
| TGATGCACGTGGATAG | -0.17 |
| CATAGCACGTGGGGGC | -0.11 |
| TGTGTCACGTGAGGAG | 0.29 |
| GTTTTCACGTGACATT | 0.42 |
| GGTAACACGTGGGAGA | -0.01 |
| TTTAGCACGTGGCAGA | -0.12 |
| GGGAGCACGTGCTGTA | -0.19 |
| GTTTTCACGTGAATGA | 0.4 |

| Sequence | relative binding free energy [kcal/mol] |
| --- | --- |
| AGGGGCACGTGCTGAT | -0.19 |
| AGTTTCACGTGGATAA | 0.21 |
| GGAATCACGTGGGGTG | 0.02 |
| GAAATCACGTGTCGGT | 0.35 |
| CTGTTCACGTGAGGGG | 0.41 |
| GTAAACACGTGGTGTG | 0.01 |
| TGAGCCACGTGTTGTG | -0.07 |
| TTAATCACGTGCGTTG | 0.07 |
| TTGTTCACGTGTAATG | 0.36 |
| GCGTGCACGTGTGTGT | 0 |
| ATTGTCACGTGTCTGA | -0.07 |
| GTACGCACGTGTTGTG | -0.03 |
| TGTGTCACGTGTAGCA | 0.1 |
| GGCTGCACGTGTAATG | 0.22 |
| ATTGACACGTGATTGT | 0.14 |
| TGTTGCACGTGATGTC | 0.21 |
| AAGGGCACGTGATGTG | 0.08 |
| ATGTGCACGTGAAGTT | 0.16 |
| TAAGACACGTGCGTTT | 0.01 |
| TTGCACACGTGGAGTA | 0.08 |
| CTGAACACGTGAAGGT | 0.37 |
| AGTTTCACGTGACGTA | 0.36 |
| TAAGTCACGTGGTACT | 0.04 |
| GTAGACACGTGCGGGG | -0.17 |
| TAGTACACGTGTGATT | 0.18 |

| Sequence | relative binding free energy [kcal/mol] |
| --- | --- |
| GGGCACACGTGTGAGG | 0.15 |
| GTTTGCACGTGGGTAG | -0.06 |
| ATGGCCACGTGGGTGG | -0.17 |
| GAAAGCACGTGGACGG | 0.08 |
| AACTACACGTGGGTGG | -0.04 |
| TGGGACACGTGTGGAC | 0.18 |
| GTGGACACGTGGGTGC | 0.03 |
| TTACTCACGTGTGTGC | 0.23 |
| CGTGTCACGTGTTGTC | 0.07 |
| AGGTACACGTGATGTA | 0.12 |
| AGGTTCACGTGCTTTG | 0.33 |
| GGTCACACGTGGTGGG | 0.09 |
| GTGTGCACGTGTCGGT | 0.06 |
| TATGGCACGTGGATGG | -0.18 |
| TTGCGCACGTGAATTG | 0.11 |
| GTATTCACGTGCGGTG | 0.22 |
| CGAGGCACGTGAGGTG | 0.06 |
| ATTTGCACGTGTTTGG | 0.09 |
| TCGCTCACGTGTGGGA | 0.3 |
| TTTGACACGTGGTGCT | -0.05 |
| GATGACACGTGAAGTT | 0.37 |
